# Laboratory results taken from the supplement of paper PMC8728848.
# The list shows a part of the results.
# Key:
# Assay in all cases: glycan array binding signal (z-score within array); higher = stronger binding
# Details in all cases: glycan notation: IUPAC condensed, linker removed
# Gal6S(b1-4)GlcNAc = target: Gal6S(b1-4)GlcNAc
# Method in brief: (§1)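 Glycan array binding is given as a within-array Z-score, which can be read as non-binding when negative. The arrays, 3228 of them, came from the Consortium for Functional Glycomics database and were retained only where the protein sequence was available. Z-scores were averaged across arrays of the same protein sequence at different concentrations or buffers and across linkers.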
# Gal6S(b1-4)GlcNAc6S = target: Gal6S(b1-4)GlcNAc6S
# Method in brief: as §1
# GalNAc(a1-3)Gal = target: GalNAc(a1-3)Gal
# Method in brief: as §1
# GalNAc(a1-3)GalNAc = target: GalNAc(a1-3)GalNAc
# Method in brief: as §1
# [1] = target: GalNAc(a1-3)GalNAc(a1-3)Gal(a1-4)Gal(b1-4)GlcNAc
# Method in brief: as §1
# [2] = target: GalNAc(a1-3)GalNAc(b1-3)Gal(a1-4)Gal(b1-4)Glc
# Method in brief: as §1
# GalNAc(b1-3)Gal = target: GalNAc(b1-3)Gal
# Method in brief: as §1
# [3] = target: GalNAc(b1-3)Gal(a1-4)Gal(b1-4)GlcNAc
# Method in brief: as §1
# [4] = target: GalNAc(b1-3)Gal(a1-4)Gal(b1-4)GlcNAc(b1-3)Gal(b1-4)Glc
# Method in brief: as §1
# [5] = target: GalNAc(b1-3)Gal(a1-6)Gal(b1-4)Glc
# Method in brief: as §1
# GalNAc(b1-3)GalNAc = target: GalNAc(b1-3)GalNAc
# Method in brief: as §1
# GalNAc(b1-3)GlcNAc = target: GalNAc(b1-3)GlcNAc
# Method in brief: as §1
# GalNAc(b1-4)Gal(b1-4)Glc = target: GalNAc(b1-4)Gal(b1-4)Glc
# Method in brief: as §1
# GalNAc(b1-4)GlcNAc = target: GalNAc(b1-4)GlcNAc
# Method in brief: as §1
# [6] = target: GalNAc(b1-4)GlcNAc(b1-2)Man
# Method in brief: as §1
# [7] = target: GalNAc(b1-4)GlcNAc(b1-2)Man(a1-3)[GalNAc(b1-4)GlcNAc(b1-2)Man(a1-6)]Man(b1-4)GlcNAc(b1-4)GlcNAc
# Method in brief: as §1
# [8] = target: GalNAc(b1-4)GlcNAc(b1-3)GalNAc(b1-4)GlcNAc
# Method in brief: as §1
# GalNAc(b1-4)GlcNAc6S = target: GalNAc(b1-4)GlcNAc6S
# Method in brief: as §1
# GalNAc(b1-6)GalNAc = target: GalNAc(b1-6)GalNAc
# Method in brief: as §1
# GalNAc3S(b1-4)GlcNAc = target: GalNAc3S(b1-4)GlcNAc
# Method in brief: as §1
# GalNAc3S(b1-4)GlcNAc3S = target: GalNAc3S(b1-4)GlcNAc3S
# Method in brief: as §1
# [9] = target: GalNAc3S(b1-4)[Fuc(a1-3)]GlcNAc
# Method in brief: as §1
# GalNAc4S6S(b1-4)GlcNAc = target: GalNAc4S6S(b1-4)GlcNAc
# Method in brief: as §1
# GalNAc6S(b1-4)GlcNAc = target: GalNAc6S(b1-4)GlcNAc
# Method in brief: as §1
# Glc(a1-4)Glc = target: Glc(a1-4)Glc
# Method in brief: as §1
# [10] = target: Glc(a1-4)Glc(a1-4)Glc(a1-4)Glc
# Method in brief: as §1
# Glc(a1-6)Glc(a1-6)Glc = target: Glc(a1-6)Glc(a1-6)Glc
# Method in brief: as §1
# [11] = target: Glc(a1-6)Glc(a1-6)Glc(a1-6)Glc
# Method in brief: as §1
# Glc(b1-4)Glc = target: Glc(b1-4)Glc
# Method in brief: as §1
# Glc(b1-6)Glc = target: Glc(b1-6)Glc
# Method in brief: as §1
# GlcA(b1-3)Gal = target: GlcA(b1-3)Gal
# Method in brief: as §1
# GlcA(b1-3)GlcNAc = target: GlcA(b1-3)GlcNAc
# Method in brief: as §1
# GlcA(b1-6)Gal = target: GlcA(b1-6)Gal
# Method in brief: as §1
# [12] = target: GlcA3S(b1-3)Gal(b1-4)GlcNAc(b1-2)Man
# Method in brief: as §1
# [13] = target: GlcA3S(b1-3)Gal(b1-4)GlcNAc(b1-3)Gal(b1-4)Glc
# Method in brief: as §1
# [14] = target: GlcNAc(a1-3)Gal(b1-4)GlcNAc
# Method in brief: as §1
# [15] = target: GlcNAc(a1-4)Gal(b1-3)GlcNAc
# Method in brief: as §1
# [16] = target: GlcNAc(a1-4)Gal(b1-4)GalNAc
# Method in brief: as §1
# [17] = target: GlcNAc(a1-4)Gal(b1-4)GlcNAc
# Method in brief: as §1
# [18] = target: GlcNAc(a1-4)Gal(b1-4)GlcNAc(b1-3)Gal(b1-4)Glc
# Method in brief: as §1
# [19] = target: GlcNAc(a1-4)Gal(b1-4)GlcNAc(b1-3)Gal(b1-4)GlcNAc
# Method in brief: as §1
# [20] = target: GlcNAc(a1-4)Gal(b1-4)GlcNAc(b1-3)Gal(b1-4)GlcNAc(b1-3)Gal(b1-4)GlcNAc
# Method in brief: as §1
# [21] = target: GlcNAc(a1-4)Gal(b1-4)GlcNAc(b1-3)Gal(b1-4)[Fuc(a1-3)]GlcNAc(b1-3)Gal(b1-4)[Fuc(a1-3)]GlcNAc
# Method in brief: as §1
# [22] = target: GlcNAc(a1-6)Gal(b1-4)GlcNAc
# Method in brief: as §1
# [23] = target: GlcNAc(b1-2)Gal(b1-3)GalNAc
# Method in brief: as §1
binder,measurement,setting,value
CPA (Cicer arietinum) (protein) MAFSYLNLVLVTLTTLFFLQTTKVKSQKSVSFHITNFTISRPSITLQGTAEFLPNVLLLNDIEHPVFVVGRALYSKPITLWNNKTGKVASFVTSFTFDVQDLKKTVPGHGLVFFLAPSGSEIPFSSDGGNLGVVDGKNAFNRFVGVEFDNFVNSWDPKYSHVGINVNSLISTKTVKWNRVSGELVKVSIVYDSVSTTLTVIVTYKNGQISILSQLVDLKAVLPDTVNIGFSASTTLVSPRQLHNIHSWSFTSTFET,glycan array binding signal (z-score),Gal6S(b1-4)GlcNAc,-0.391
same,glycan array binding signal (z-score),Gal6S(b1-4)GlcNAc6S,-0.461
same,glycan array binding signal (z-score),GalNAc(a1-3)Gal,-0.194
same,glycan array binding signal (z-score),GalNAc(a1-3)GalNAc,-0.504
same,glycan array binding signal (z-score),[1],-0.604
same,glycan array binding signal (z-score),[2],-0.586
same,glycan array binding signal (z-score),GalNAc(b1-3)Gal,-0.473
same,glycan array binding signal (z-score),[3],-0.307
same,glycan array binding signal (z-score),[4],-0.323
same,glycan array binding signal (z-score),[5],-0.385
same,glycan array binding signal (z-score),GalNAc(b1-3)GalNAc,-0.508
same,glycan array binding signal (z-score),GalNAc(b1-3)GlcNAc,0.009
same,glycan array binding signal (z-score),GalNAc(b1-4)Gal(b1-4)Glc,0.277
same,glycan array binding signal (z-score),GalNAc(b1-4)GlcNAc,1.17
same,glycan array binding signal (z-score),[6],1.55
same,glycan array binding signal (z-score),[7],2.78
same,glycan array binding signal (z-score),[8],0.687
same,glycan array binding signal (z-score),GalNAc(b1-4)GlcNAc6S,0.235
same,glycan array binding signal (z-score),GalNAc(b1-6)GalNAc,-0.31
same,glycan array binding signal (z-score),GalNAc3S(b1-4)GlcNAc,-0.515
same,glycan array binding signal (z-score),GalNAc3S(b1-4)GlcNAc3S,-0.865
same,glycan array binding signal (z-score),[9],-0.492
same,glycan array binding signal (z-score),GalNAc4S6S(b1-4)GlcNAc,-0.706
same,glycan array binding signal (z-score),GalNAc6S(b1-4)GlcNAc,2.2
same,glycan array binding signal (z-score),Glc(a1-4)Glc,-0.433
same,glycan array binding signal (z-score),[10],0.27
same,glycan array binding signal (z-score),Glc(a1-6)Glc(a1-6)Glc,-0.458
same,glycan array binding signal (z-score),[11],-0.424
same,glycan array binding signal (z-score),Glc(b1-4)Glc,-0.369
same,glycan array binding signal (z-score),Glc(b1-6)Glc,-0.614
same,glycan array binding signal (z-score),GlcA(b1-3)Gal,-0.077
same,glycan array binding signal (z-score),GlcA(b1-3)GlcNAc,-0.543
same,glycan array binding signal (z-score),GlcA(b1-6)Gal,-0.263
same,glycan array binding signal (z-score),[12],-0.733
same,glycan array binding signal (z-score),[13],-0.388
same,glycan array binding signal (z-score),[14],1.92
same,glycan array binding signal (z-score),[15],0.078
same,glycan array binding signal (z-score),[16],-0.153
same,glycan array binding signal (z-score),[17],2.25
same,glycan array binding signal (z-score),[18],0.304
same,glycan array binding signal (z-score),[19],1.27
same,glycan array binding signal (z-score),[20],1.69
same,glycan array binding signal (z-score),[21],0.575
same,glycan array binding signal (z-score),[22],-0.014
same,glycan array binding signal (z-score),[23],-0.522
